# Assay results: the supplement of paper PMC3334620
# Whole data set: some 33,000 sequences, median “E-score (-0.5 to 0.5)” near -0.053, cut for the highest 2% near 0.37. The list shows a part of the results.
# Biological target: Hap1 (UniProt P0CE41)
# Test: PBM E-score (8-mer binding enrichment) (E-score (-0.5 to 0.5)); higher = stronger / more preferred TF binding; most listed sequences are background and not binding sites
# Conditions: protein concentration: 200 nM; construct: GST-DNA-binding domain
# Procedure, shortened: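 Using PURExpress in vitro transcription/translation, GST-tagged yeast transcription factors were made in full-length or DNA-binding-domain form. These were applied at about 100-200 nM to double-stranded universal all-10-mer Agilent arrays, and bound protein was detected with fluorescent anti-GST. Scans were normalised with masliner before the Universal PBM Analysis Suite assigned E-scores to ungapped eight-base words pooled with their reverse complements.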
# Chain of UniProt P0CE41 (P0CE41 whole entry): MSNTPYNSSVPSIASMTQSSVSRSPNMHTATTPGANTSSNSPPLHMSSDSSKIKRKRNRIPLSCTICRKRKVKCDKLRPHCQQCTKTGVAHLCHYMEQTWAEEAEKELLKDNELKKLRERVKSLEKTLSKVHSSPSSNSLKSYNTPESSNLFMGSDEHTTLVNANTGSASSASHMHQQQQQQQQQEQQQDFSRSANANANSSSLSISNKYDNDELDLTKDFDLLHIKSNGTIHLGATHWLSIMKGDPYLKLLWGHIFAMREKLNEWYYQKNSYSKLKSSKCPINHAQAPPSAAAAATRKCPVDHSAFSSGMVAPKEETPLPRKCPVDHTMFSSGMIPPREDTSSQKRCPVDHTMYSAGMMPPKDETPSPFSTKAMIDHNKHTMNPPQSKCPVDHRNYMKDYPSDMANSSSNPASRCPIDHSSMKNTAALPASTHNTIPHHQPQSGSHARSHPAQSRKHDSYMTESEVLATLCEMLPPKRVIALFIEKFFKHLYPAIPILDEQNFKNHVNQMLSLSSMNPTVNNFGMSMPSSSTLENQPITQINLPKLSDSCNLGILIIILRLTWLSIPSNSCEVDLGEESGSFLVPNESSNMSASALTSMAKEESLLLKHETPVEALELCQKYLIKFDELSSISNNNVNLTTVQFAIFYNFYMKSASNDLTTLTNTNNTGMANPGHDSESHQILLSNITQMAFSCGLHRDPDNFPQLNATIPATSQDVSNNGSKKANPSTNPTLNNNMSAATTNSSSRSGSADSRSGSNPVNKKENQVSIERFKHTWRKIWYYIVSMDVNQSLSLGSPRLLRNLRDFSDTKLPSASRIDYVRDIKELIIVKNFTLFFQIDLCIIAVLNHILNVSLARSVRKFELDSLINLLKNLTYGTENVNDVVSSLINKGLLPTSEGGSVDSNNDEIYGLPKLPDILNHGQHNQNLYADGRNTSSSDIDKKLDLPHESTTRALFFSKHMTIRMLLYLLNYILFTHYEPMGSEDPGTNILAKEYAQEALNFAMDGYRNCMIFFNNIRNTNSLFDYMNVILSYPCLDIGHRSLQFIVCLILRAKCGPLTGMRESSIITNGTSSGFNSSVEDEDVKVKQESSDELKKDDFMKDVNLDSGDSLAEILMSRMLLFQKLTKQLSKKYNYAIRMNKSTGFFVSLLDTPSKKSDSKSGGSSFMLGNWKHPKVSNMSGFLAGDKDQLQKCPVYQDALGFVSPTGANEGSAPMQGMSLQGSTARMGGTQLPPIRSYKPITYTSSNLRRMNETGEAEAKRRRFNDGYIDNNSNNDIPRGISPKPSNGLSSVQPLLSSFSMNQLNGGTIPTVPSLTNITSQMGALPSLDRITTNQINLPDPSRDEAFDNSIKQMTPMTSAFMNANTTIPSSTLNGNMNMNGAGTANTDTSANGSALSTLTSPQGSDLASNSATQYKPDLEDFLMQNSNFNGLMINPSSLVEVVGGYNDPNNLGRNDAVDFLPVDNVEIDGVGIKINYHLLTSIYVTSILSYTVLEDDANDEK
row,Sequence,PBM E-score
1,ATAATAAA,0.128
2,AACTCGCG,0.0253
3,CTAATACC,0.246
4,GCCTACTA,-0.141
5,ATTAGTTG,-0.0774
6,ACTAGTCC,0.13
7,GGGTAAGA,-0.019
8,AAAAACCT,-0.0122
9,CTGCCCGA,0.202
10,AGTATTAG,0.0646
11,CGGTGACC,0.0217
12,AGCAACCA,-0.0386
13,AAATCGGC,0.303
14,GAACATTA,0.0953
15,ATTGCCTG,-0.0963
16,AGGGCCTG,-0.316
17,CCATCACA,-0.19
18,CACGGATG,0.179
19,AACTGATG,-0.187
20,AAAGGGTA,-0.0562
21,AAGCGCCC,0.209
22,CGAGTCTA,-0.0832
23,TCAAATCA,-0.313
24,CAAGGGGA,-0.0784
25,CCGAGAGA,0.309

row,Sequence,PBM E-score
1,CGGACAGC,0.268
2,ACGCGCGA,0.184
3,AACTCATA,-0.0429
4,AGTTATAT,0.149
5,GTACGAAA,-0.161
6,ACTCTAGG,-0.2
7,GAACTATA,0.0768
8,ACTCACCT,-0.328
9,AAAGAGCA,-0.118
10,GTTGCTCA,-0.185
11,GAGTTTCC,0.0827
12,AGCGCCAA,-0.251
13,CGGGACAG,0.221
14,GTTACCAA,-0.0436
15,ACAGAGTC,-0.167
16,GTGCCAGA,-0.198
17,CGGTATAC,0.212
18,GGTATGCA,-0.166
19,GGCTCGAC,-0.105
20,GCCTCACC,-0.129
21,AGTGTAAA,-0.14
22,TATCTCGA,-0.0692
23,CAGTATGC,-0.125
24,CGCTTGGA,-0.0692
25,AAGGTTGC,-0.101

row,Sequence,PBM E-score
1,ATCGATGG,-0.145
2,AGAGGCCT,-0.258
3,AAATCTAA,-0.22
4,AGTTTTGA,-0.00825
5,ACTCTAAT,-0.132
6,GATCCTCC,-0.0188
7,GCAGCAAA,-0.179
8,ACTCCAAC,-0.0402
9,CGGGGGGC,0.0983
10,GGGCCCAA,0.0258
11,CACGTGTC,-0.228
12,GGGATTGA,-0.123
13,GTGTTTCA,-0.156
14,ATGTAACA,-0.14
15,AAAGGAAA,-0.0768
16,CTCGGCGA,0.383
17,GCTATAAC,0.0749
18,AGGAAGGC,-0.189
19,CCCCACCC,0.207
20,CCCTACGC,-0.113
21,CTTCAGAA,-0.107
22,GCCTGAAC,-0.0686
23,GGGCCACC,0.0898
24,CCATATTC,0.0415
25,ATCAGCCC,-0.153

row,Sequence,PBM E-score
1,CAATGTCC,0.0735
2,ACCTTCGG,0.247
3,ACGGCTCT,0.122
4,CAATAAGA,-0.112
5,ATCCCCGA,0.44
6,ATACTTCA,-0.22
7,ATCTTAAA,-0.0261
8,GAGCCCCC,-0.174
9,CCTTGCTA,-0.27
10,CAAGCGGA,0.134
11,AAAGGCAT,-0.125
12,AGCTGAGC,-0.0676
13,CTGCGATC,-0.179
14,GGAGGCGA,-0.0142
15,AATCCTTG,0.0432
16,ATTTGCTG,0.0215
17,TCGCCAAA,-0.0842
18,CCTCATTA,-0.165
19,AAGTCAAC,-0.35
20,CAGCGACC,-0.0029
21,AATATCAC,0.0531
22,AGTTCTCG,0.0632
23,CAGGTGGA,-0.23
24,TGTAACAA,-0.24
25,ATCAGAAA,-0.184

row,Sequence,PBM E-score
1,AACGCCCC,0.128
2,ATTCTCAG,-0.143
3,AATAGGGC,0.0175
4,ACTTTCAT,-0.167
5,CTAGTGAG,-0.16
6,ATCTTAAG,-0.0593
7,CTTAACTA,-0.0648
8,CGTCTGAC,-0.045
9,GCTCCACA,-0.189
10,GAAAAAGC,0.0726
11,ACGAAAAG,-0.0325
12,CAACTGAC,-0.147
13,ATCACAAC,-0.0371
14,TCTGCAAA,-0.133
15,AGAGCCTA,-0.233
16,AGCGCCGA,0.372
17,GTACATAC,0.00046
18,GCAATAGA,-0.147
19,AACACGTT,-0.055
20,CTCCTTTA,-0.167
21,ATGCTATA,-0.224
22,AAGAAATA,-0.0989
23,AAAGTAAA,-0.134
24,ATGAGTAA,-0.176
25,AGAAAGTG,-0.151

row,Sequence,PBM E-score
1,ATTGCATC,-0.091
2,CTTTTCCC,-0.116
3,GGGGCACC,-0.0243
4,ATACAATG,-0.0139
5,AATGGGAA,-0.239
6,AACATGGC,-0.125
7,CGGTGAAA,0.337
8,AAGAAGAT,0.00478
9,GATTAAGC,0.24
10,ACATAAGT,-0.0829
11,AAACTTCA,-0.205
12,CTCCCCGA,0.247
13,CAAATCTG,-0.304
14,AATTTAGC,0.036
15,ACGCGACG,-0.0767
16,CACTACAA,-0.0996
17,AAAGTTCT,0.0513
18,ACGGCGAT,0.241
19,AAAGACCG,0.345
20,GAAACTGA,-0.138
21,CCGACCTA,0.226
22,GCACTCCC,-0.117
23,ATCGAGAT,-0.0329
24,CGCCTTGA,-0.0767
25,CGTCGCTA,-0.121

row,Sequence,PBM E-score
1,TCGGTCAA,0.277
2,TCTGACAA,-0.203
3,CCGTTCCA,0.172
4,CGCAACTA,0.122
5,AGCTATTA,-0.104
6,GAGCCTAA,-0.0722
7,GAAGGCGC,0.0107
8,ATAATTCA,-0.0771
9,CGTTAACG,0.291
10,CAAGAACC,-0.132
11,TGCCGTAA,0.0155
12,AGAGTGTG,-0.119
13,ACAGTTAG,-0.113
14,ACACATAG,-0.23
15,GACTCGTA,-0.04
16,CACTATGG,-0.247
17,CTTTACGC,-0.096
18,CAATCCAG,-0.0698
19,CAAAGCGG,0.0171
20,AGCGTCAT,-0.139
21,CCCATACA,-0.257
22,ACCTAAAC,0.0175
23,ATGCCTGG,-0.213
24,GCTACGTA,-0.189
25,ACTTGCAT,0.0174

row,Sequence,PBM E-score
1,ATTGCAGC,-0.121
2,ACAGCGGG,0.00133
3,CAGAACGA,-0.181
4,CATAGGAC,-0.18
5,AGATCGCC,-0.00144
6,GGGGAAAA,0.0838
7,AGAAACCA,-0.0938
8,ATCCTAGC,-0.233
9,GTTCTACA,-0.231
10,CGGCTGCA,0.195
11,GCCACCGC,0.00177
12,ATCGGTTA,0.332
13,GAAGAAAA,-0.0242
14,CTTTATTC,-0.0165
15,CCCTGGCC,-0.191
16,CGAGTCTC,-0.0636
17,CGACCTAA,0.161
18,GTTTATAA,0.222
19,ACCCGTGC,-0.0971
20,CCTGCAGG,-0.0801
21,CAAGATTG,-0.185
22,CATAGTCA,-0.282
23,AGAAGAGG,-0.0709
24,ATAACTAC,0.116
25,CACCCCTC,-0.0955

row,Sequence,PBM E-score
1,CATTTTGA,-0.222
2,CGACCCCG,0.196
3,CGCTTAAA,-0.0379
4,AGACTACG,-0.0441
5,GAGGCTCA,-0.217
6,GCATACAC,-0.118
7,AAATATAG,-0.0275
8,CCTTTATC,0.109
9,CTCCCAGC,-0.0749
10,TAAGGATA,-0.0188
11,ATTATTCA,0.0104
12,GCTGGGAA,0.156
13,ATCTCTCA,0.0459
14,TAAGTGTA,-0.282
15,CGCACCCC,0.0616
16,TAACAGAA,-0.185
17,TTAGCCAA,-0.222
18,CGTAACGA,-0.188
19,CCGGGTAG,0.282
